Data taken from PubChem BioAssay AID1347434 (National Center for Advancing Translational Sciences (NCATS), 2020).
“And” between values parts separate entries of the source, which are not always exact repeats. Identical values can stand only once. The campaign covered roughly 1,200 compounds. About 30 (2%) were called active. The shares of active, inactive and inconclusive entries below differ from those in the screen. The call rests on the fitted dose curve; in most records, active means well fitted inhibition curve with a large enough effect; inconclusive means small, poorly fitted or top-dose-only effect; inactive means flat fitted curve, though single readings scatter. A potency beside an inconclusive call is a rough fit, not a confirmed value.

Biological target: Single-stranded DNA cytosine deaminase (Homo sapiens) (UniProt Q9GZX7)
Assay: Confirmatory qHTS assay for inhibitors of Activation Induced Cytidine Deaminase (AID): AID signals
Conditions: recombinant AID, FRET deamination/UDG coupled fluorescence, 4 h; series mostly up to 115 µM; activity, negative = inhibition: at the top concentration
Method in brief: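 Read 1 (AID) was measured at 540 ex/590 em after a 30 min NaOH step. The reaction was AID (1 uM, 4/3x stock) with UDG, compound at final 7.32 nM - 114 uM for 10 min, then DJC20/DJC23 substrate for 4 hr at room temperature. A UDG read at 560/665 serves as counterscreen.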
On the % scale 0 is the no-effect control and ±100 the full control effect; potency means the concentration at half of the fitted maximal effect; tags describe the fitted curve by direction and shape.

Chain of UniProt Q9GZX7 (Q9GZX7 whole entry, looked up): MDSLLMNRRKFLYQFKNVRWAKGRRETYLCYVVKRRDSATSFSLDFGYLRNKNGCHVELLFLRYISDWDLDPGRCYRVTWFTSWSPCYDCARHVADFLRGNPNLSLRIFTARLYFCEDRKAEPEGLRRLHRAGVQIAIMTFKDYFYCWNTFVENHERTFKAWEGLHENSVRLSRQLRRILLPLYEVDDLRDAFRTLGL

Potency, active:
Cc1ccc(NC(=O)CSc2ncc(S(=O)(=O)c3ccc(C(C)C)cc3)c(=O)[nH]2)cc1C 31.6 µM
CC1(C)CCC2=C(O1)c1ccccc1C(=O)C2=O 7.08 µM

Potency, inconclusive:
Cn1c(=O)c2c(-c3ccc(Cl)cc3)n(CCc3ccccc3)cc2n(C)c1=O 35.5 µM [inhibitor, single point]
CCN(CC)CCCNC(=O)c1ccc2c(c1)N(Cc1c(F)cccc1Cl)C(=O)c1ccccc1S2 31.6 µM [inhibitor, single point]
O=C(COc1ccccc1)NCC(c1cccs1)S(=O)(=O)c1ccc(Cl)cc1 (centres undefined) 35.5 µM [inhibitor, single point]
CCOC(=O)c1ccc(-n2c(CCC(=O)O)ccc2-c2ccc(Br)cc2)cc1 31.6 µM [inhibitor, single point]
CCCCCCCCCCCCCCSCC(=O)O 35.5 µM [inhibitor, single point]
COc1cccc(-c2nc3cc(NC(=O)c4ccc(C)c([N+](=O)[O-])c4)ccc3o2)c1 25.1 µM [inhibitor, partial curve] and 31.6 µM [inhibitor, partial curve, poor fit]
Cc1cccc(OCCCSc2nc(-c3ccc(C(C)(C)C)cc3)nc3cc(=O)[nH]n23)c1C 35.5 µM [inhibitor, single point]
Oc1ccc(NCc2ccccc2OCc2ccccc2Cl)cc1 89.1 µM [inhibitor, single point]
COc1ccc2c(c1)Cc1sc(NC(=O)c3ccc(Cl)cc3)nc1-2 12.6 µM [inhibitor, full curve, poor fit]
CCCCN(CCCC)C(=O)c1cc2c(=O)n3cccc(C)c3nc2s1 39.8 µM [inhibitor, single point]
COc1ccc(C2CC(=O)Nc3c2c(C)nn3-c2nncc(-c3ccc(C)cc3)n2)c(OC)c1OC (centres undefined) 35.5 µM [inhibitor, partial curve]
N#C/C(=C\c1ccc(-c2ccc(C(=O)O)cc2)o1)C(=O)Nc1ccccc1C(=O)O 17.8 µM [inhibitor, partial curve]
COc1ccccc1NC(=O)CSc1nc(-c2ccc(C(C)(C)C)cc2)c(C#N)c(=O)[nH]1 35.5 µM [inhibitor, single point]
CC(C)c1ccc(S(=O)(=O)c2nnn3c2nc(N2CCN(C)CC2)c2sccc23)cc1 35.5 µM [inhibitor, partial curve]
CCCn1c2ccccc2c2nnc(SCC(=O)Nc3cccc(C(C)=O)c3)nc21 31.6 µM [inhibitor, partial curve]
COc1ccc(-n2nc3c(N4CCCC(C(=O)NCc5ccc(C)cc5)C4)nnc(C)c3c2C)cc1 (centres undefined) 31.6 µM [inhibitor, partial curve]
Cc1cc2oc(=O)c(CC(=O)O)c(C)c2c2occ(-c3ccccc3)c12 28.2 µM [inhibitor, single point]
COc1cc(C(c2c(C)[nH][nH]c2=O)c2c(C)[nH][nH]c2=O)ccc1OC(=O)c1ccccc1OC 31.6 µM [inhibitor, single point]
CCCN1CCN(CCCNC(=O)c2cc3c(Cl)nc4ccccc4c3s2)CC1 31.6 µM [inhibitor, single point]
CCc1ccc(OCCCSc2nc(-c3ccc(C(C)(C)C)cc3)nc3cc(=O)[nH]n23)cc1 35.5 µM [inhibitor, single point]
Cc1ccc(-c2cn3c(n2)sc2cc(C(=O)NCCCN4CCCCC4)ccc23)cc1 35.5 µM [inhibitor, partial curve, poor fit]
COc1cc2c(=O)c(C(=O)c3ccc(C)c(C)c3)cn(Cc3ccccc3F)c2cc1OC 31.6 µM [inhibitor, single point]
COc1ccc(-c2nc(Cn3c(SCc4ccccc4F)nc4cccnc43)c(C)o2)cc1 14.1 µM [inhibitor, partial curve, poor fit]
CCn1cc(C(=O)NCCc2ccc(OC)c(OC)c2)c(=O)c2cc(S(=O)(=O)N3CCC(C)CC3)ccc21 25.1 µM [inhibitor, partial curve, poor fit]
CCc1ccc(NC(=O)CSc2nc(-c3ccccc3)c(C#N)c(=O)[nH]2)cc1 39.8 µM [inhibitor, single point]
O=C(O)c1c(-c2ccccc2)oc2ccc(OCc3c(F)cccc3Cl)cc12 50.1 µM [inhibitor, partial curve, poor fit]
CCn1cc2nc(SCc3cccc(C(F)(F)F)c3)n(Cc3ccc(Cl)cc3)c(=O)c2n1 17.8 µM [inhibitor, partial curve, poor fit]
CCOc1cccc2sc(N3CCN(C(=O)c4ccc5c(c4)CCCC5)CC3)nc12 31.6 µM [inhibitor, partial curve]

activity, negative = inhibition, inactive:
Cc1cccc(N2CCN(C(=O)Cn3ncc4c3-c3cc(C)ccc3OC4)CC2C)c1 (centres undefined) -19%
CC1CCCN(C(=O)c2ccc(CSc3nc4ccncc4n3Cc3ccccc3)cc2)C1 (centres undefined) -7.61%
O=C(NCCc1ccccc1)c1nc(-c2ccc(Cl)cc2)n2c1CCCCC2 -11.3%
COc1ccc2c(c1)Cc1sc(NC(=O)c3cccc(C)c3)nc1-2 -15.7%
CCOC(=O)CSc1nnc2n(-c3ccccc3)c(=O)c3c4c(sc3n12)CC(C(C)(C)C)CC4 (centres undefined) -11.7%
CCOc1ccc(-c2nn(-c3ccccc3)cc2C2NC(=O)NC(C)=C2C(=O)OC(C)C)cc1 (centres undefined) -5.41%
CCc1nn(CCCC(=O)N2CCN(c3cc(Cl)ccc3C)CC2)c(=O)c2cc3occc3n12 -25%
COc1ccc(-n2c(-c3ccc(C)cc3)cc3c2CC(C)(C)CC3=O)c(OC)c1 -15.8%
Cc1cc2c(cc3c(SCc4ccc(Cl)cc4)nnc(C)n32)o1 -7.73%
